Data on 56 compounds can be found in PubChem BioAssay AID463173 (ICCB-Longwood Screening Facility, Harvard Medical School, 2010).

Structures are written as SMILES. In all, about 52,000 compounds went through this assay and about 4,300 (8.3%) were called active. Cut-off read from the data, not from the text of the source: active = survival mostly below about 52% (no sharp cut-off); inactive = mostly above about 56%. Some of the results follow.

This assay relates to DeltatarO mutant. As to the kind of experiment: growth inhibition of S. aureus wild type versus tarO mutant, primary screen, teichoic acid synthesis inhibitors, RN4220, OD600 (AID 463173). The note with it: OD600, 18 h, stronger effect = lower value, screened at 18.75 µg/mL (by protocol).
In the case of `Cn1cc(-c2cc3n(n2)CCC(=O)N3CCCC(=O)NCc2ccc(Cl)cc2)c2ccccc21`, the survival is inactive: 122%.
As to `CC(C(=O)Nc1ccccc1C(=O)N1CCCC1)n1nnc2ccccc21` (stereo unspecified), the survival was inactive: 77%.
On to `CCC(CC)C(=O)OCc1cc(=O)n2nc(C3CC3)sc2n1`, for which the survival was inactive: 62%.
Take `CC1=C(c2ccc(Cl)cc2)S(=O)(=O)NC1=NCCCN1CCN(c2cc(C)ccc2C)CC1`: the survival was inactive: 78%.
To `CC1C(=O)Nc2ccc(S(=O)(=O)N3CCCCC3)cc2NC1=O` (stereo unspecified) belongs inactive: 73%.
On to `O=C(CSc1nccn1Cc1ccccc1)NCc1ccco1`, for which the survival was inactive: 80%.
In the case of `COc1ccc(Cn2c(CCC(=O)Nc3cc(OC)c(OC)c(OC)c3)nc3cccnc32)cc1`, the survival is inactive: 128%.
Turning to `CCOc1ccc(NCc2cccn2-c2nnc(N3CCC(C(=O)NCC(C)c4ccccc4)CC3)s2)cc1` (stereo unspecified), the survival is inactive: 79%.
Turning to `CCOc1ccccc1NC(=O)CN1C(=O)COc2ccc(S(=O)(=O)N3CCOCC3)cc21`, the survival was inactive: 94%.
To `CC(C)C(OC(=O)c1cc2occc2n1C(C)C)C(=O)NCC1CCCO1` (stereo unspecified) belongs inactive: 67%; to `COc1ccc(-n2c(-c3ccc(C)cc3)cc3c2CC(C)(C)CC3=O)cc1Cl`, inactive: 80%; to `CC1CCN(C(=O)Cn2c(=O)n(CC3CCC(C(=O)NC(C)C)CC3)c(=O)c3sccc32)CC1` (stereo unspecified), inactive: 88%.
`CCOC(=O)c1ccc(NC(=O)CC2C(=O)N(c3ccc(F)cc3)C(=O)N2Cc2cccnc2)cc1` (stereo unspecified): the survival was inactive: 95%.
Take `COc1ccc(-c2nc(SCC(=O)NC3CCCC3)c(-c3ccc(F)cc3)[nH]2)cc1`: the survival was inactive: 75%.
As for `Cc1[nH]c(=O)[nH]c(=O)c1N`, the survival is inactive: 93%.
The result for `O=C(Nc1cc(-c2nc3ccccc3o2)ccc1Cl)c1sc2c([N+](=O)[O-])cccc2c1Cl` reads inactive: 76%.
For the compound `CC(C)(C)OC(=O)N1CCC(c2c(C(=O)NCc3cccc(Cl)c3)cnn2-c2ccc(F)cc2)CC1`, the survival was inactive: 94%.
For `CCOc1ccc(CN2CCc3nc(N4CCN(c5ccccc5OC)CC4)ncc3C2)cc1OC`, the survival is inactive: 115%.
Turning to `CCc1ccccc1NC(=O)CSc1nc(-c2cccc(Cl)c2)nc2c1Cc1c(CO)cnc(C)c1O2`, the survival is inactive: 50%.
Turning to `CCN1CCCC1CNC(=O)Nc1c[nH]c2ccc(OC)cc2c1=O` (stereo unspecified), the survival was inactive: 102%.
`COc1cc(/C=C(\C#N)C(=O)NCC2CCCO2)ccc1O` (stereo unspecified): the survival was inactive: 83%.
For `CC(=O)Nc1ccc(NC(=O)CCc2nc3cccnc3n2Cc2cccs2)cc1`, the survival is inactive: 95%.
With `Cc1cc(C)nc(SCc2noc(-c3ccc(Cl)cc3)n2)n1`, the survival is inactive: 97%.
On to `Cc1ccc(NC(=O)Cn2nc(C(=O)Nc3ccc(C)cc3)ccc2=O)cc1`, for which the survival was inactive: 74%.
In the case of `CC1CCN(Cc2c(O)ccc3c(=O)c(Oc4ccccc4Cl)c(C(F)(F)F)oc23)CC1`, the survival is inactive: 83%.
As for `NC(=Nc1ccccc1)SC1CC(=O)N(c2ccccc2)C1=O` (stereo unspecified), the survival was inactive: 93%.
In the case of `COc1ccc(CNS(=O)(=O)c2ccc(N3CCCCS3(=O)=O)cc2)cc1`, the survival is inactive: 74%.
Consider `Cc1ccc(C(=O)Nc2ccc3c(c2)n(C)c(=O)c(=O)n3C)cc1`, for which the survival was inactive: 91%.
Regarding `O=C(COc1ccccc1F)Nc1ccc2nc(SCCOc3ccccc3)sc2c1`, the survival was inactive: 86%.
On to `Cc1ccc(NC(=O)Cn2c(=O)n(Cc3nc(-c4ccccc4)no3)c(=O)c3cc4c(cc32)OCO4)cc1F`, for which the survival is inactive: 80%.
The result for `COc1ccc(NC(=O)CC2C(=O)N(c3cccc(OC)c3)C(=O)N2CCc2cccs2)cc1` (stereo unspecified) reads inactive: 74%; that for `CC(C)c1ccc(Cn2c(COc3ccccc3)nc3ccccc32)cc1`, active: -1%; that for `COc1ccc(S(=O)(=O)NCC(c2ccco2)S(=O)(=O)c2ccc(C)cc2)cc1F` (stereo unspecified), inactive: 75%.
Turning to `Cc1ccc(S(=O)(=O)N2CCCC(c3nc4c(nnn4Cc4ccc(OC(F)(F)F)cc4)c(=O)[nH]3)C2)cc1` (stereo unspecified), the survival was inactive: 80%.
To `O=C(Cn1c(=O)nc(-c2ccccc2)c2cc(Cl)ccc21)NCc1ccccc1` belongs inactive: 83%.
To `CCOC(=O)c1ccc2c(c1)N(Cc1cccc([N+](=O)[O-])c1)C(=O)c1ccccc1S2` belongs inactive: 80%; to `CCc1cccc(CC)c1NC(=O)c1cc(S(=O)(=O)N2CCc3ccccc32)cn1C`, inactive: 68%.
To `COC(=O)c1c(NC(=O)CCCOc2ccc(C)cc2)sc2c1C(C(=O)OC)CC2` (stereo unspecified) belongs inactive: 44%; to `Cc1ccc(CN2CCCn3nc(C(=O)NCCN(C)C)cc3C2=O)cc1`, inactive: 99%.
With `COc1ccc(-c2ccc(NS(=O)(=O)c3ccc(F)c(C(F)(F)F)c3)cc2)nn1`, the survival was inactive: 117%.
To `CCOC(=O)c1c(C)[nH]c(C)c1S(=O)(=O)N1CCC(C(=O)NCc2ccccc2)CC1` belongs inactive: 81%; to `Cc1ccc(C)c(OCCSc2nc3ccccc3n2CC(=O)N2CCOCC2)c1`, inactive: 55%.
To `COc1ccc2c(c1)c1c(c(=O)n(Cc3ccccc3)c(=O)n1Cc1cc(C)ccc1C)n2C` belongs inactive: 76%.
As for `Cc1nc2ccn(Cc3ccco3)c(=O)c2cc1C(=O)N1CCN(c2ccccc2F)CC1`, the survival is inactive: 93%.
`COc1ccc(NC(=O)Cc2coc3cc(C)cc(C)c23)c(OC)c1`: the survival was inactive: 60%.
Turning to `COc1cccc(OCc2nc3ccccc3n2CCOc2ccccc2)c1`, the survival is active: 35%.
On to `Cc1nn2c(=O)cc(COC(=O)c3ccccc3NC(=O)c3ccccc3C)nc2s1`, for which the survival was inactive: 104%.
Regarding `O=C(N1CCCCC1)C1(c2ccccc2)CCOCC1`, the survival was inactive: 105%.
To `COc1ccc(NC(=O)CC2C(=O)N(c3ccc(C)cc3)C(=O)N2CCc2ccccc2)cc1` (stereo unspecified) belongs inactive: 62%; to `COc1ccc(CC(=O)Nc2c(C(=O)Nc3ccccc3F)oc3ccccc23)cc1`, inactive: 79%.
The result for `O=c1c2c([nH]c3ccccc13)CCC2` reads inactive: 118%; that for `COCCNC(=O)c1cc2n(n1)CCCN(Cc1ccc(C)cc1)C2=O`, inactive: 78%; that for `COC(=O)N1N=C(c2ccccc2)CC1(O)C(F)(F)F` (stereo unspecified), inactive: 85%.
To `Cc1c(Cl)cccc1Nc1sc(C(=O)c2ccccc2)c(N)c1S(=O)(=O)c1ccccc1` belongs inactive: 71%; to `CC(=O)Cn1nnc2sc(-c3ccccc3)cc2c1=O`, inactive: 65%; to `CN(Cc1ccccc1)C(=O)c1cc2c(=O)n(C)c3ccccc3c2s1`, inactive: 86%.
